The results in this text go back to a collection of fitness landscapes (doi:10.1126/science.1257360).

The list shows a part of the results.

B1: PhoQ; a variant is named by its letters at X, in order, P23837 (parent)
chain: MKKLLRLFFPLSLRVRFLLATAAVVLVLSLAYGMVALIGYSVSFDKTTFRLLRGESNLFYTLAKWENNKLHVELPENIDKQSPTMTLIYDENGQLLWAQRDVPWLMKMIQPDWLKSNGFHEIEADVNDTSLLLSGDHSIQQQLQEVREDDDDAEMTHSVAVNVYPATSRMPKLTIVVVDTIPVELKSSYMVWSWFIYVLSANLLLVIPLLWVAAWWSLRPIEALAKEVRELEEHNRELLNPATTRELTSLVRNLNRLLKSERERYDKYRTTLTDLTHSLKTPLXXLQXXLRSLRSEKMSVSDAEPVMLEQISRISQQIGYYLHRASMRGGTLLSRELHPVAPLLDNLTSALNKVYQRKGVNISLDISPEISFVGEQNDFVEVMGNVLDNACKYCLEFVEISARQTDEHLYIVVEDDGPGIPLSKREVIFDRGQRVDTLRPGQGVGLAVAREITEQYEGKIVAGESMLGGARMEVIFGRQHSAPKDE

Variants of B1 are the subject of this experiment. In words: enrichment ratio after two sorts for PhoP signalling (ratio (wild type AVST 3.29)); higher = more functional. The following applies: with PhoP (E. coli).
As to APFA, the enrichment ratio was ≤ 0.25.
The figure for DSPE is ≤ 0.25.
HLMV: the enrichment ratio is ≤ 0.25.
The figure for LLKL is ≤ 0.25; for IPCQ it is ≤ 0.25; for NDFY it is ≤ 0.25.
With RIWF the figure was ≤ 0.25; with MGPH, ≤ 0.25.
With QRGH the figure was ≤ 0.25.
TGYH: the enrichment ratio was 1.03.
The figure for PCSL is ≤ 0.25.
The figure for VSSY is ≤ 0.25.
The figure for PYLM is ≤ 0.25; for GNGQ it is ≤ 0.25; for PLMC it is ≤ 0.25.
Regarding GEPV, the enrichment ratio was ≤ 0.25.
The figure for FFKG is ≤ 0.25; for QVFC it is ≤ 0.25.
In the case of EGAH, the enrichment ratio is ≤ 0.25.
The figure for DCGP is ≤ 0.25; for EYFK it is ≤ 0.25; for GSKY it is ≤ 0.25.
Turning to KPFC, the enrichment ratio was ≤ 0.25.
The figure for EANY is ≤ 0.25; for DQEI it is ≤ 0.25; for REKH it is ≤ 0.25.
With VSNQ the figure was ≤ 0.25.
The figure for DKTT is ≤ 0.25; for KLPK it is ≤ 0.25.
Consider TEAN, for which the enrichment ratio was determined as 29.6.
With ILLL the figure was ≤ 0.25; with EPGL, ≤ 0.25.
With KAGC the figure was ≤ 0.25.
The figure for SQQG is 6.66; for EHPF it is ≤ 0.25.
Consider PTTW, for which the enrichment ratio was ≤ 0.25.
The figure for DSHV is ≤ 0.25; for HNPQ it is ≤ 0.25.
The figure for VDVF is ≤ 0.25; for YPKE it is ≤ 0.25; for FRIN it is ≤ 0.25.
The figure for ISLA is ≤ 0.25; for PLYK it is ≤ 0.25; for SSHK it is ≤ 0.25.
In the case of YPRV, the enrichment ratio is ≤ 0.25.
The figure for LYYG is ≤ 0.25.
With HYHY the figure was ≤ 0.25.
Consider PNEH, for which the enrichment ratio is ≤ 0.25.
With NIKD the figure was ≤ 0.25; with TFSV, 6.01.
On to QIGA, for which the enrichment ratio is ≤ 0.25.
The figure for SECM is 38.2; for HWLE it is ≤ 0.25; for IYRQ it is ≤ 0.25.
With HEMN the figure was ≤ 0.25; with TTEA, ≤ 0.25.
With KQTV the figure was ≤ 0.25; with KSMW, ≤ 0.25.
With QCTW, the enrichment ratio is ≤ 0.25.
The figure for QADN is ≤ 0.25.
With YMRR the figure was ≤ 0.25; with IKMK, ≤ 0.25; with IDTH, ≤ 0.25.
With PKRY the figure was ≤ 0.25; with VRVH, ≤ 0.25.
For the variant LGCG, the enrichment ratio is ≤ 0.25.
As for RAWG, the enrichment ratio is ≤ 0.25.
With KYHL the figure was ≤ 0.25; with EYAE, ≤ 0.25; with GSTE, ≤ 0.25.
Turning to QLPK, the enrichment ratio is ≤ 0.25.
With AELQ the figure was 7.37; with WKSA, ≤ 0.25; with YMPM, ≤ 0.25.
With QYTT the figure was ≤ 0.25; with TRWS, ≤ 0.25; with SDGK, ≤ 0.25.
For the variant WKFW, the enrichment ratio is ≤ 0.25.
With TTLG the figure was 10.6.
The figure for WKFN is ≤ 0.25; for CLTF it is 7.98.
WDSA: the enrichment ratio is ≤ 0.25.
With EKPW the figure was ≤ 0.25.
The figure for MDLF is ≤ 0.25; for HDIR it is ≤ 0.25.
With GMDC the figure was ≤ 0.25.
Take DPTD: the enrichment ratio was ≤ 0.25.
As for RYRW, the enrichment ratio is ≤ 0.25.
The figure for YPDT is ≤ 0.25; for LPQG it is ≤ 0.25; for DLSA it is ≤ 0.25.
The figure for LTLL is 3.06; for IWPR it is ≤ 0.25.
With TTMS the figure was 26.8; with QGAY, ≤ 0.25.
On to SKIT, for which the enrichment ratio amounted to 2.38.
With GGKQ the figure was ≤ 0.25; with PWDL, ≤ 0.25; with RGWK, ≤ 0.25.
With TCTW the figure was 10.8; with LGCM, ≤ 0.25; with KADF, ≤ 0.25.
The figure for AQQN is ≤ 0.25; for QVRS it is ≤ 0.25.
WFDM: the enrichment ratio is ≤ 0.25.
As to WTKD, the enrichment ratio is ≤ 0.25.
In the case of YKMD, the enrichment ratio is ≤ 0.25.
The figure for DFSA is ≤ 0.25; for QDKI it is ≤ 0.25; for HTGR it is ≤ 0.25.
The figure for SRPA is ≤ 0.25.
With PHYR the figure was ≤ 0.25; with DFYR, ≤ 0.25; with RDLD, ≤ 0.25.
Regarding VSHC, the enrichment ratio is ≤ 0.25.
With PCPL the figure was ≤ 0.25.
The figure for YTPW is ≤ 0.25; for PEIL it is 0.746.
With EQAT the figure was ≤ 0.25; with QSCY, ≤ 0.25; with YHID, ≤ 0.25.
Turning to NTKQ, the enrichment ratio is ≤ 0.25.
With LYVA, the enrichment ratio is ≤ 0.25.
Consider YWPH, for which the enrichment ratio is ≤ 0.25.
With LTYH the figure was ≤ 0.25.
GMHS: the enrichment ratio is ≤ 0.25.
In the case of MPDD, the enrichment ratio is ≤ 0.25.
With DTRS the figure was ≤ 0.25; with ANMI, 26.5; with GDNT, ≤ 0.25.
With IQMC the figure was ≤ 0.25; with IKGY, ≤ 0.25.
On to ATSW, for which the enrichment ratio was determined as 1.32.
The figure for PTNC is ≤ 0.25; for NHDV it is ≤ 0.25; for WGVK it is ≤ 0.25.
Take NPPE: the enrichment ratio was ≤ 0.25.
With ATSQ the figure was 11.6.
For the variant IWYW, the enrichment ratio is ≤ 0.25.
With MFLF the figure was ≤ 0.25; with QIIF, ≤ 0.25.
The figure for HLPG is ≤ 0.25.
The figure for GNGV is ≤ 0.25; for EQAS it is ≤ 0.25; for CFLP it is ≤ 0.25.
Take TAFQ: the enrichment ratio turned out to be 5.49.
The figure for QWLG is ≤ 0.25.
With FFHY the figure was ≤ 0.25; with MKLR, ≤ 0.25.
The figure for FQHS is ≤ 0.25.
As for SKPW, the enrichment ratio is ≤ 0.25.
Consider RIWK, for which the enrichment ratio is ≤ 0.25.
With VTGC the figure was ≤ 0.25.
